Assay results published in PubChem BioAssay AID485367 (National Center for Advancing Translational Sciences (NCATS), 2010).
In all, about 330,000 compounds went through this assay and about 560 (0.17%) were called active. Inconclusive means that the source gave no clear call. Such entries were picked first, then a sample of the others. Calls come from the whole dose curve; as a rule, active = well fitted inhibition curve with a large enough effect; inconclusive = small, poorly fitted or top-dose-only effect, or effect the other way; inactive = flat fitted curve, though single readings scatter. Potencies of inconclusive entries are left out as doubtful fits.

What follows are molecules tested against ATP-dependent 6-phosphofructokinase (Trypanosoma brucei brucei) (UniProt O15648) (assay: qHTS Assay to Find Inhibitors of T. brucei phosphofructokinase). Conditions: T. brucei PFK, ADP-Glo luminescence; activity, negative = inhibition: at 57.5 µM (top of the series).
Chain of UniProt O15648 (O15648 whole entry, looked up): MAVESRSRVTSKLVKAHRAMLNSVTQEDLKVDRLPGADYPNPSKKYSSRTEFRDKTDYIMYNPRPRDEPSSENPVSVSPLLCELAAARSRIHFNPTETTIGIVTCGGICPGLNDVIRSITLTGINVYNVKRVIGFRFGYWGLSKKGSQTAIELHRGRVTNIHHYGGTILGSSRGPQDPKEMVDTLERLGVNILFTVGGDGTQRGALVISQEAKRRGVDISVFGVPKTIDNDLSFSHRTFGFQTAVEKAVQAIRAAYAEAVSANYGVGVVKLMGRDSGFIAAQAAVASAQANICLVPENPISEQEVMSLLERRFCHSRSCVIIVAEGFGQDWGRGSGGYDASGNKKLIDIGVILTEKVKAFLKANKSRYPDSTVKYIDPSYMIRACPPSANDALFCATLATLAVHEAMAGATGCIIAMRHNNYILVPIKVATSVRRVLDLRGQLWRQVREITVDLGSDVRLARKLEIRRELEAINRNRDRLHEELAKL
Summary of the method: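 PFK 1.25 nM, F6P 0.5 mM, ATP 0.1 mM, 0.1 M TEA pH 8.0, 5 mM MgCl2, 0.01% Tween20, 0.1% BSA; 45 min RT. ADP-Glo readout. qHTS titration up to 57 uM; curves fitted, compounds curve-classed.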
Note: nearly all actives have a fitted effect of over 60% in size.
Potency is the fitted concentration of half-maximal effect; tags give direction and shape of the fitted curve.
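Throughout, for activity, negative = inhibition: 0% = uninhibited 1x PFK enzyme wells and -100% = no-enzyme wells.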

Row | SMILES | Potency | activity, negative = inhibition
1 | O=C(NCCCN1CCOCC1)c1sc2cc([N+](=O)[O-])ccc2c1Cl | active: 10.7 µM | 
2 | O=C(O)c1cccc(-n2cccc2/C=C2/NC(=O)N(c3ccc(Cl)cc3)C2=O)c1 | inconclusive [falling, partial curve] | 
3 | COc1ccc(CCNC(=O)C2CC(=O)N(c3ccc(F)cc3)C2)cc1OC (stereo unspecified) |  | inactive: -3.21%
4 | Cc1ccc(OCCOc2cccc(Br)c2)c([N+](=O)[O-])n1 | inconclusive [falling, single point] | 
5 | C=C(C)C(=O)Nc1cccc(C2=NOC3(C2)C[C@@H](C(N)=O)N(C(=O)c2cc([N+](=O)[O-])cc([N+](=O)[O-])c2)C3)c1 (stereo partly specified) | inconclusive [falling, partial curve] | 
6 | CCOC(=O)c1sc2nc3n(c(=O)c2c1C)CCC(C)CC3 (stereo unspecified) |  | inactive: -7.82%
7 | OCC1(CCOc2ccccc2)CCN(CC2=Cc3cc(Cl)ccc3OC2)CC1 |  | inactive: -1.06%
8 | CCSc1nnc(N2C(=O)C(O)=C(C(=O)c3ccco3)C2c2cccc(OC)c2)s1 (stereo unspecified) | inconclusive [falling, single point] | 
9 | COc1cccc(C=Nc2ccc(N3CCOCC3)cc2)c1O |  | inactive: 2.55%
10 | O=C(Nc1ccc(F)cc1Cl)c1ccc2c(=O)n3c(nc2c1)CCCCC3 | inconclusive [falling, single point] | 
11 | O=C(Nc1cnn(Cc2ccc(F)cc2)c1)c1cc(-c2ccco2)on1 |  | inactive: -9.89%
12 | CCOc1ccc2nc(NC(=O)C3CCCN(S(=O)(=O)c4cccc5nonc45)C3)sc2c1 (stereo unspecified) |  | inactive: 3.56%
13 | CCOc1cc(/C=C2/SC(=O)N(CC(=O)N3CCc4ccccc4C3)C2=O)ccc1OCC(=O)O |  | inactive: -2.34%
14 | O=C(Nc1ccncc1)Nc1ccc(Cl)cc1 | inconclusive [falling, partial curve] | 
15 | CC(=O)n1cc(C(C[N+](=O)[O-])SCCN)c2ccccc21 (stereo unspecified) | inconclusive [activator, partial curve] | 
16 | CCn1c(SCC(=O)N/N=C/C=C/c2ccco2)nnc1-c1ccc(OC)cc1 | inconclusive [falling, single point] | 
17 | O=c1c2ccccc2sn1-c1cc(S(=O)(=O)N2CCOCC2)ccc1N1CCCC1 | active: 9.53 µM | 
18 | O=C(O)c1cccc(-n2cccc2/C=C2\SC(=O)N(Cc3ccccc3F)C2=O)c1 | inconclusive [falling, single point] | 
19 | O=C(NC(=S)Nc1ccc(CN2CCCCC2)cc1)c1cccc(OCc2ccccc2)c1 |  | inactive: 1.63%
20 | O=C(COC(=O)CNC(=O)c1ccc(Cl)cc1Cl)Nc1cccc(S(=O)(=O)N2CCCC2)c1 | inconclusive [falling, single point] | 
21 | Cc1ccc(S(=O)(=O)/N=C2/NC(=O)/C(=C\c3ccccc3)S2)cc1 | inconclusive [activator, single point] | 
22 | Cc1ccc(-c2c[n+](Cc3ccc(Cl)cc3)c3n2CCC3)cc1 | inconclusive [falling, partial curve] | 
23 | NS(=O)(=O)c1ccc(NC(=O)Nc2ccc(C(F)(F)F)cc2)cc1 | inconclusive [falling, partial curve] | 

Row | SMILES | Potency | activity, negative = inhibition
24 | CN1CCC(N(C)S(=O)(=O)c2ccc(NC(=O)COc3cccc(Cl)c3)cc2)CC1 | inconclusive [falling, partial curve] | 
25 | CCn1c(SCC(=O)NCc2ccco2)nnc1-c1cccs1 | inconclusive [falling, single point] | 
26 | CC1=C(C(=O)Nc2ccc(CC(=O)NCc3ccc(OC(C)C)cc3)cc2)SCCO1 | inconclusive [falling, single point] | 
27 | O=C(Nc1ccccn1)c1sc2cc([N+](=O)[O-])ccc2c1Cl | inconclusive [falling, full curve, poor fit] | 
28 | COc1cc(NC(=O)c2cc(-c3ccc4c(c3)OCO4)on2)cc(OC)c1OC | inconclusive [falling, single point] | 
29 | COc1ccc(-n2sc3ccc(F)cc3c2=O)cc1 | active: 6.75 µM | 
30 | CCCOc1ccc(C(CC(=O)O)NC(=O)Cc2ccccc2)cc1 (stereo unspecified) |  | inactive: 3.87%
31 | Cc1ccc(Cl)cc1N1CCN(C(=O)C2CCN(S(C)(=O)=O)CC2)CC1 |  | inactive: 1.05%
32 | CCOc1ccc(N(CC(=O)NCc2ccco2)S(=O)(=O)c2ccc(OC)c(OC)c2)cc1 | inconclusive [falling, single point] | 
33 | CCN1C(=O)S/C(=C/c2ccc(Sc3nc4ccccc4[nH]3)o2)C1=O | inconclusive [falling, full curve, poor fit] | 
34 | CCC(=O)NC(c1ccccc1OC)c1ccc2cccnc2c1O (stereo unspecified) |  | inactive: -2.92%
35 | Cc1ccc(C2CN(c3ccccc3)CC2C(=O)c2ccc(F)cc2)cc1 (stereo unspecified) |  | inactive: 1.53%
36 | COc1cc2c(cc1OC)-c1cc(NCc3ccccn3)nc(=O)n1CC2 | inconclusive [falling, single point] | 
37 | O=C(O)CCCN1C(=O)/C(=C/C=C/c2ccco2)SC1=S | inconclusive [falling, single point] | 
38 | CCOC(=O)CSc1nnc(CNc2ccc(F)cc2)o1 | inconclusive [falling, single point] | 
39 | COc1ccccc1C(=O)NCCC(=O)Nc1nc2ccccc2[nH]1 |  | inactive: -15.9%
40 | COc1ccc(C[C@](C)(N)C(=O)O)cc1OC |  | inactive: -2.79%
41 | O=C1Nc2ccc(NS(=O)(=O)c3cccs3)c3cccc1c23 | inconclusive [activator, partial curve] | 
42 | O=C(NCCN1CCCCC1)Nc1ccccc1 | inconclusive [falling, single point] | 
43 | Cc1ccc(OC(=O)c2ccc(S(=O)(=O)N(C)C)cc2)c(-n2nc3ccccc3n2)c1 |  | inactive: -1.52%
44 | CC(C)Cc1nc2ccccc2n1CCc1ccccc1 |  | inactive: -2.65%
45 | CC1=C(C#N)C(=O)N(C2CCS(=O)(=O)C2)C(=O)/C1=C\c1ccc(C)o1 (stereo unspecified) | inconclusive [falling, single point] | 
46 | Cc1sc(NC(=O)C2=COCCO2)c(C#N)c1C | inconclusive [falling, single point] | 
